The other results are listed elsewhere or left out. At the low end of the ranking the order means little.

This test concerns the target T1, ETS1 (UniProt P14921).
T1 sequence: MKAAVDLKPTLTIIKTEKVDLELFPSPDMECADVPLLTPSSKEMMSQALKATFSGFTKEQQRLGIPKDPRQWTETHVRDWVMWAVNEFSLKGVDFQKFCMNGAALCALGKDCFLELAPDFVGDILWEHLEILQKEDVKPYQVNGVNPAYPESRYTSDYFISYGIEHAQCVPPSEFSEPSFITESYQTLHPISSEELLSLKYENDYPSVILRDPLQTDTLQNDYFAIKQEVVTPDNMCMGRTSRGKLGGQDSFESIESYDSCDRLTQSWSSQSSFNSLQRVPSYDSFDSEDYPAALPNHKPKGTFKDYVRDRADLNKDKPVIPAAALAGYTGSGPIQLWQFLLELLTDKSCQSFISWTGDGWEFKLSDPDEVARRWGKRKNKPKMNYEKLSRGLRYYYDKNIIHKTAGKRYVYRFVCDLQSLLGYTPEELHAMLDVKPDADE
The test is described as follows: custom PBM. The note with it: custom protein-binding microarray; buffer, salt, pH and temperature not stated; high values mean tight binding; double strand, one strand shown.
As to “CGGAAGTGTCGTAAACGTCGGATTTCCGGTTCTTCTGTCTTGATTCGCTTGACGCTGCTG”, the binding signal (log fluorescence intensity) amounted to 12.5.

Consider “TAAAGGGAAGACGGTTGTGGTAGTTCCGGGTGTTAAGTCTTGATTCGCTTGACGCTGCTG”, for which the binding signal (log fluorescence intensity) was determined as 8.6.

With “GCTGCTGTGGTGCATACCCCACCGGATGTGACCCCGGTCTTGATTCGCTTGACGCTGCTG”, the binding signal (log fluorescence intensity) came to 10.3. In the case of “CGGAAGTGTCGTAAACGTCGGATATCCGGTTCTTATGTCTTGATTCGCTTGACGCTGCTG”, the binding signal (log fluorescence intensity) is 11.9.

With “GGAAAAAGGCCCAGGGTAACACCGGAAGTTGGCTTAGTCTTGATTCGCTTGACGCTGCTG”, the binding signal (log fluorescence intensity) turned out to be 11.6. On to “CAGCATACGACTTCTTCCCTGAAGCAATTGATAACCGTCTTGATTCGCTTGACGCTGCTG”, for which the binding signal (log fluorescence intensity) is 8.26. “CACAATTTTTACAGTAATGTAGCACGCGTAACACCTGTCTTGATTCGCTTGACGCTGCTG”: the binding signal (log fluorescence intensity) is 8.23.

As for “CACAAGTTTTACAGTAATGTAGCACGCGTAACTCCTGTCTTGATTCGCTTGACGCTGCTG”, the binding signal (log fluorescence intensity) worked out at 8.13. The result for “CAGCATAGGACTTCTTCCCTGAAGCAATTAATAACCGTCTTGATTCGCTTGACGCTGCTG” reads 8.26; that for “TCCGGCTACCAGCTCCACCAACTTCAGGCCTTGTAGGTCTTGATTCGCTTGACGCTGCTG”, 8.2. Consider “CACAATTGTTACAGTAATGTAGCACGCGTAACTCCTGTCTTGATTCGCTTGACGCTGCTG”, for which the binding signal (log fluorescence intensity) came out at 8.19. Regarding “GATTAATTTCTGCCCTTATTCGCACGTGCTATAACAGTCTTGATTCGCTTGACGCTGCTG”, the binding signal (log fluorescence intensity) amounted to 8.21. “CAGCATAGGACTTCTTCCCTGAAGCAAATGATAACCGTCTTGATTCGCTTGACGCTGCTG”: the binding signal (log fluorescence intensity) came out at 8.15. Then “TCCGGCTACCAGCTCCACCCACTTCAGGCCTGGTAGGTCTTGATTCGCTTGACGCTGCTG”, with 8.19; and “CGGAAGTGTCGTAAACGTCGGATATCCAGTTCTTCTGTCTTGATTCGCTTGACGCTGCTG”, with 8.64. For the sequence “TACTGACTTATAAATGCGAATGCACATGAATAGACCGTCTTGATTCGCTTGACGCTGCTG”, the binding signal (log fluorescence intensity) was 8.13.

On to “GTGTATAGGATCCCATCCAACACACGAGTTAAAATGGTCTTGATTCGCTTGACGCTGCTG”, for which the binding signal (log fluorescence intensity) turned out to be 8.08.

On to “TCCGGCTACCAGCTCCATCCACTTCAGGCCTTGTAGGTCTTGATTCGCTTGACGCTGCTG”, for which the binding signal (log fluorescence intensity) was determined as 8.24. Consider “CAGCATAGGGCTTCTTCCCTGAAGCAATTGATAACCGTCTTGATTCGCTTGACGCTGCTG”, for which the binding signal (log fluorescence intensity) amounted to 8.25. For the sequence “GCTGCTGCGGTGCATACCCCACCGGACGTGACCCCGGTCTTGATTCGCTTGACGCTGCTG”, the binding signal (log fluorescence intensity) was 8.55. For the sequence “CACAATTATTACAGTAATGTAGCACGCGTAACTCCTGTCTTGATTCGCTTGACGCTGCTG”, the binding signal (log fluorescence intensity) is 8.22.

For “TACTGACTTATATATGCGAATGCACATCAATAGACCGTCTTGATTCGCTTGACGCTGCTG”, the binding signal (log fluorescence intensity) is 8.32.

With “GGAAAAAGGCCCAGGGTAACACCGGAATTGGGCTTAGTCTTGATTCGCTTGACGCTGCTG”, the binding signal (log fluorescence intensity) was found to be 8.27. The result for “GCTGCTGCGGTGCATACCCCACCGGATGTGTCCCCGGTCTTGATTCGCTTGACGCTGCTG” reads 9.62. Regarding “CGGAAGTGGCGTAAACGTCGGATATCCGGTTCTTCTGTCTTGATTCGCTTGACGCTGCTG”, the binding signal (log fluorescence intensity) stood at 11.7. Turning to “GTGTATAGGATCCCATCCAACACACGTGTTAAAACGGTCTTGATTCGCTTGACGCTGCTG”, the binding signal (log fluorescence intensity) is 8.25. For the sequence “CTGGGACTTGACCCAACTCTGCCACGTGGGGCGTTTGTCTTGATTCGCTTGACGCTGCTG”, the binding signal (log fluorescence intensity) is 8.16. With “TAAAGGGAAGTCGGTTGTGGTAGTTCCGGGTATTAAGTCTTGATTCGCTTGACGCTGCTG”, the binding signal (log fluorescence intensity) amounted to 9.66. Take “TTCGGCTACCAGCTCCACCCACTTCAGGCCTTGTAGGTCTTGATTCGCTTGACGCTGCTG”: the binding signal (log fluorescence intensity) is 8.14. As to “TAAAGGGAAGCCGGTTGTGGTAGTTCCGGGTATTAAGTCTTGATTCGCTTGACGCTGCTG”, the binding signal (log fluorescence intensity) was found to be 8.87.

For “GCTGCTGCGGTGCATACCCCAGCGGATGTGACCCCGGTCTTGATTCGCTTGACGCTGCTG”, the binding signal (log fluorescence intensity) worked out at 8.5.

Regarding “CACAATTTTTTCAGTAATGTAGCACGCGTAACTCCTGTCTTGATTCGCTTGACGCTGCTG”, the binding signal (log fluorescence intensity) amounted to 8.14. The result for “GATTAATATCTGCCCTTATTCGCACGTGCCATAACAGTCTTGATTCGCTTGACGCTGCTG” reads 8.16; that for “GTGTATAGGATCCCATCCAACACACGTGTTATAATGGTCTTGATTCGCTTGACGCTGCTG”, 8.23. On to “CACAATTTTTACAGTAATGTAGCACGCGTAACTCGTGTCTTGATTCGCTTGACGCTGCTG”, for which the binding signal (log fluorescence intensity) is 8.15.

In the case of “TACTGACTTATATATGCGAATGCACATGGATAGACCGTCTTGATTCGCTTGACGCTGCTG”, the binding signal (log fluorescence intensity) turned out to be 8.36. Take “CGGAAGTGTCGTAAAGGTCGGATATCCGGTTCTTCTGTCTTGATTCGCTTGACGCTGCTG”: the binding signal (log fluorescence intensity) is 11.8. Take “GTGTATAGGATCCCATCTAACACACGTGTTAAAATGGTCTTGATTCGCTTGACGCTGCTG”: the binding signal (log fluorescence intensity) worked out at 8.21. Turning to “TAAAGGGAGGACGGTTGTGGTAGTTCCGGGTATTAAGTCTTGATTCGCTTGACGCTGCTG”, the binding signal (log fluorescence intensity) turned out to be 8.36. On to “TGTCGGGTAATGGAATGTAGATCACGTGAATGAAAAGTCTTGATTCGCTTGACGCTGCTG”, for which the binding signal (log fluorescence intensity) was 8.17.

These data come from paper PMC6602471.
